Measurements: PubChem BioAssay (NCATS)
The shares of active, inactive and inconclusive entries below differ from those in the screen. Where the call is inconclusive, the potency comes from a doubtful curve fit. Active and inactive are the calls of the source. The call rests on the fitted dose curve; in most records, active means well fitted cell-killing curve with a large enough effect; inconclusive means small, poorly fitted or top-dose-only effect, or effect the other way; inactive means no such curve, though single readings can be large or run the other way.

Assays:
[1] = Viability qHTS for spleen associated tyrosine kinase inhibitor (SYKi) naive MV4-11 cells (AID 1963823); settings: MV4-11 AML viability, CellTiter-Glo luminescence, 72 h; series mostly up to 45 µM; further: nearly all actives have a fitted effect of over 40% in size
Outline: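 Luminescence from CellTiter-Glo, developed 10 min at room temperature, gave viability of MV4-11 cells never exposed to SYK inhibitor. Cells (500/well) had been incubated with compounds for 72 hr under standard culture conditions.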

[2] = Viability qHTS for spleen associated tyrosine kinase inhibitor (SYKi) drug resistant MV4-11 cells (AID 1963824); settings: SYKi-resistant MV4-11 viability, CellTiter-Glo, 72 h; series mostly up to 45 µM; further: nearly all actives have a fitted effect of over 35% in size
Outline: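 CellTiter-Glo luminescence, read 10 min after reagent addition, reports viability after a 72 hr compound exposure. Cells are an MV4-11 line made resistant to SYK inhibition, seeded at 500 per well onto compound-containing plates.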
Potency means the concentration at half of the fitted maximal effect; tags describe the fitted curve by direction and shape.

Compound	Potency [1]	Potency [2]
CC1C(=O)CC2C3C(O)CC(C(=O)O)C12CC3(C)C (stereo not drawn)	inconclusive: 16.4 µM [cytotoxic, partial curve]	active: 20.6 µM
CC(=O)NC(Cc1c[nH]c2ccccc(=O)c12)C(=O)O (stereo not drawn)	inconclusive: 29.1 µM [cytotoxic, single point]	inconclusive: 29.1 µM [cytotoxic, partial curve, poor fit]
Cc1ccc(Nc2nnc(-c3ccc([N+](=O)[O-])cc3)o2)cc1Cl	inconclusive: 14.6 µM [cytotoxic, single point]	inconclusive: 7.31 µM [cytotoxic, full curve, poor fit]
Cc1ccc(NC(=O)N2CCN(c3nc(N)nc4sc(-c5cccnc5)nc34)CC2)cc1	active: 0.013 µM	inconclusive: 0.0184 µM [cytotoxic, full curve, poor fit]
CCCn1ncc(CN2CCCC(C(=O)c3cccc(OC(C)C)c3)C2)c1C (stereo not drawn)	inconclusive: 18.4 µM [cytotoxic, partial curve]	inconclusive: 25.9 µM [cytotoxic, single point]
COc1cc(C)c(C(=O)O[C@H]2[C@@H](OC(C)=O)[C@H](n3ccc(=O)[nH]c3=O)O[C@@H]2CO)c(OC)c1	inactive	inconclusive: 0.502 µM [cytotoxic, partial curve, poor fit]
C=C(C(=O)O)[C@@H]1CC[C@H](C)[C@@H]2CC(=O)C(C)=C2C1	inconclusive: 23.1 µM [cytotoxic, single point]	inconclusive: 8.2 µM [cytotoxic, partial curve, poor fit]
CC(=O)O[C@H]1CC[C@H](C)[C@@]2(C)[C@H](OC(C)=O)c3c(C)coc3C(=O)[C@H]12	inconclusive: 6.4 µM [cytotoxic, single point]	inconclusive: 18 µM [cytotoxic, single point]
C=C1CC(=O)C2OC2(C)CC2OC(=O)C(=C)C2C(O)C1OC(=O)/C(C)=C\C (stereo not drawn)	inconclusive: 0.321 µM [cytotoxic, full curve]	inconclusive: 0.321 µM [cytotoxic, full curve]
CC(=O)NCc1c(I)c(NC(C)=O)c(I)c(C(=O)O)c1I	inactive	inactive
COC(=O)C1=COC(O[C@@H]2O[C@H](CO)[C@@H](O)[C@H](O)[C@H]2O)/C(=C\COC(=O)/C=C/c2ccccc2)C1CC(=O)OCCc1ccc(O)cc1 (stereo partly drawn)	inconclusive: 9.68 µM [cytotoxic, single point]	inconclusive: 9.68 µM [cytotoxic, single point]
CC1CCCC(O)CCC/C=C/c2cc(OS(=O)(=O)O)cc(O)c2C(=O)O1 (stereo not drawn)	inconclusive: 12.8 µM [cytotoxic, partial curve]	inconclusive: 14.3 µM [cytotoxic, partial curve, poor fit]
CC(/C=C/C1=CC2=CC(=O)C(C)(O)C(O)C2=CO1)=C\C(C)CCO (stereo not drawn)	inactive	inactive
CC(C)S(=O)(=O)NC[C@@H]1CC(c2ccc(N3CCCC3)c(F)c2)=NO1	inconclusive: 18.4 µM [cytotoxic, partial curve, poor fit]	inconclusive: 14.6 µM [cytotoxic, partial curve]
CS(=O)(=O)Nc1ccc2oc3c(OC(F)F)ccc(C(=O)Nc4c(Cl)cncc4Cl)c3c2c1	inconclusive: 13 µM [cytotoxic, partial curve]	active: 23.1 µM
Cc1ccc(F)cc1C(=O)Nc1ccc(C(=O)N2Cc3cccn3Cc3ccccc32)c(Cl)c1	inconclusive: 9.2 µM [cytotoxic, partial curve]	inconclusive: 10.3 µM [cytotoxic, partial curve, poor fit]
CC(C)(C)c1nnc(NS(=O)(=O)c2ccccc2)s1	inactive	inactive
COC1/C=C/C(C)(O)C(SCC(N)C(=O)O)CC(=O)OC(C)C(C)CC/C=C/1C (stereo not drawn)	inconclusive: 10 µM [cytotoxic, single point]	inconclusive: 10 µM [cytotoxic, single point]
CC(=O)O[C@@H]1c2c3c(cc(O)c2C(=O)O[C@@H]1C)O[C@@]1(C)[C@@H](O)C[C@H]2C(C)(C)C(=O)C=C[C@]2(C)[C@@H]1C3	inconclusive: 5.02 µM [cytotoxic, partial curve, poor fit]	inconclusive: 2 µM [cytotoxic, partial curve]
